# The campaign covered roughly 360,000 compounds. About 6,000 (1.7%) were called active. The shares of active, inactive and inconclusive entries below differ from those in the screen. Calls come from the whole dose curve; as a rule, active = well fitted cell-killing curve with a large enough effect; inconclusive = small, poorly fitted or top-dose-only effect, or effect the other way; inactive = flat fitted curve, though single readings scatter. No potency is given beside an inconclusive call; the fits are too rough.
# Assay: qHTS for induction of synthetic lethality in tumor cells producing 2HG: qHTS for the HT-1080-NT fibrosarcoma cell line;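 note: NT is the 2HG producing partner of a matched IDH1 knockdown line; nearly all actives have a fitted effect of over 55% in size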;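 for activity, negative = less viability: 0% = DMSO-treated cells and -100% = media-only wells without cells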
# Details: HT-1080-NT fibrosarcoma viability, CellTiter-Glo ATP luminescence, 48 h; activity, negative = less viability: at 46.1 µM (top of the series) unless noted
# Method in brief: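 HT-1080-NT fibrosarcoma cells (2HG-overproducing), 750 cells/well in RPMI with 5% FBS, dosed after 2 h and incubated 48 h at 37C. CellTiter-Glo luminescence normalized to DMSO and no-cell wells; concentration-response curves fitted and classed.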
# Potency is the fitted concentration of half-maximal effect; tags give direction and shape of the fitted curve.
SMILES,"activity, negative = less viability",Potency
O=C(NCCOc1ccccc1)c1ncn[nH]1,inconclusive: -16.3% [cytotoxic],
CCOC(=O)C1(CCOc2ccccc2)CCN(Cc2ccc(OCC)c(CO)c2)CC1,,"inconclusive [cytotoxic, single point]"
O=C(Nc1cccc(-c2cn3c(n2)SCC3)c1)c1ccc(Br)o1,,inactive
CCOc1cc(CNCCO)cc(Br)c1OCc1ccc(Cl)cc1Cl,,"inconclusive [cytotoxic, single point]"
Cc1ccc(C)c(OCc2nnc(NC(=O)c3ccc4c(c3)OCO4)s2)c1,,"inconclusive [cytotoxic, single point]"
CCn1c(O)c(N=Nc2ccc3ccccc3n2)c2ccccc21,,inactive
COc1cc(OC)cc(C2=Cc3ccc(OC)cc3C(CC(C)=O)N2c2ccc(C#CCCO)cc2)c1 (stereo unspecified),,"inconclusive [cytotoxic, single point]"
COc1ccccc1/C=C/C(=O)NCC(=O)N=Nc1c(O)[nH]c2ccccc12,,inactive
O=[N+]([O-])c1ccc(S(=O)(=O)NCCN2CCOCC2)cc1,,inactive
CN(C)CCNc1ncnc2c1ncn2[C@H]1CN(Cc2ccccc2)C[C@@H](CO)O1,,"inconclusive [rising, single point]"
N#Cc1ccc(Nc2nc(NCc3ccccc3)nc3ccsc23)cc1,,"inconclusive [cytotoxic, partial curve]"
Cc1c(/C=N\NC(=O)c2cc3ccccc3o2)c2ccccc2n1C,,"inconclusive [cytotoxic, partial curve]"
COc1ccc(S(=O)(=O)N2CCC(C(=O)N3CCc4ccccc4C3)CC2)cc1Cl,,"inconclusive [cytotoxic, single point]"
COc1ccc2c(c1)C(=O)N1[C@H]3c4cc(C)ccc4OC[C@@H]3[C@H](c3ccccc3)[C@]1(C)C(=O)N2,,"inconclusive [cytotoxic, full curve]"
Cc1ccc2nc(NC(=O)CSc3nc(=O)n(CCN(C)C)c4c3CCCC4)sc2c1,,inactive
CC(C)Cc1ccc(C(C)C(=O)Nc2cccnc2)cc1 (stereo unspecified),,"inconclusive [cytotoxic, single point]"
O=C(NCc1cccnc1)/C(=C\c1ccc(-c2ccc(Br)cc2)o1)S(=O)(=O)c1ccccc1,,active: 9.2 µM
O=C1NC(=O)C(=Cc2ccc(Cl)cc2Cl)S1,,"inconclusive [cytotoxic, single point]"
Cc1cc(C)cc(Nc2c3c(nc4ncnn24)CCC3)c1,,"inconclusive [cytotoxic, single point]"
CC(=O)c1ccc(NC(=O)C2CCCN2S(=O)(=O)c2ccc(C)cc2)cc1 (stereo unspecified),,inactive
COc1ccccc1NC(=O)Nc1ccc(C(=O)N2CCCCC2)cc1,,"inconclusive [cytotoxic, single point]"
Nc1nc2ccccc2n1CCOc1ccc(F)cc1,,"inconclusive [cytotoxic, single point]"
O=C(CCc1nc2ccccc2c(=O)[nH]1)Nc1nnc(SCc2ccccc2F)s1,,inactive
CCOC(=O)Cc1c(C)nc2c(C#N)c[nH]n2c1=O,,inactive

SMILES,"activity, negative = less viability",Potency
O=C(Nc1ccc(OC(F)(F)F)cc1)C1CCCCN1S(=O)(=O)c1ccccc1 (stereo unspecified),,inactive
Cc1ccccc1-c1cc(C(=O)NCc2ccco2)n(CC2CC(c3cccnc3)=NO2)n1 (stereo unspecified),,"inconclusive [cytotoxic, single point]"
COc1ccc2c(CC(=O)OCC(=O)N3CCc4ccccc43)coc2c1,,inactive
COC(=O)[C@]12CCCCC=C1N(Cc1cccc3ccccc13)C(=O)[C@H](CC(=O)NCc1ccccc1)C2,,"inconclusive [cytotoxic, single point]"
Oc1ccc(C[C@H]2CNC(=S)N2CC2CCCN2C[C@H](Cc2ccccc2)N2C[C@H](Cc3ccc(O)cc3)N(CCc3ccccc3)C2=S)cc1 (stereo partly specified),,inactive
CCOc1ccc(-n2c(SCC(=O)Nc3ccc(OC)cc3)nc3sc4c(c3c2=O)CCN(C)C4)cc1,,"inconclusive [cytotoxic, single point]"
Cc1cc(C)c2[nH]c(C)c(CN3CCCCCC3)c(=O)c2c1,,inactive
O=C(COc1ccc(F)cc1)NNC(=O)Cn1ccc(C(F)(F)F)n1,,inactive
COc1cccc(C(=O)COC(=O)CCC(=O)NC2CCCCC2)c1,,inactive
O=C(CSc1nnc(-c2cccc(Br)c2)o1)N1CCOCC1,,inactive
CCN1CCN(c2ccc(NC(=O)c3ccc([N+](=O)[O-])o3)cc2Cl)CC1,,"inconclusive [cytotoxic, single point]"
NNc1nc(-c2ccccc2)cc(-c2ccc(Br)cc2)n1,,"inconclusive [cytotoxic, single point]"
O=C1C(NS(=O)(=O)c2ccccc2)=C(N2CCN(c3ccc(F)cc3)CC2)C(=O)c2ccccc21,,"inconclusive [cytotoxic, single point]"
NC(CCc1ccccc1)c1csc(NC(=O)NCCc2ccccc2)n1 (stereo unspecified),,active: 16.4 µM
CCOC(=O)c1ccc(/[N+]([O-])=C/c2ccccc2)cc1,,inactive
CCc1ccccc1OC[C@@H](O)CN[C@H]1CCCc2ccccc21,,"inconclusive [cytotoxic, single point]"
COc1ccc(-c2nc(-c3ccccc3)c(-c3cc([N+](=O)[O-])ccc3C)[nH]2)cc1O,,"inconclusive [cytotoxic, single point]"
CN(C)/C=C1\C(=O)N(c2ccc([N+](=O)[O-])cc2)N=C1c1ccccc1,,"inconclusive [cytotoxic, single point]"
Cc1nc2ccccc2c2c(N)c3ccccc3n12,,"inconclusive [rising, single point]"
CC(=O)c1ccc(NC(=S)Nc2ccn(Cc3ccc(Br)cc3)n2)cc1,,"inconclusive [cytotoxic, partial curve]"
COc1ccc(C(=O)NCC(=O)N/N=C/c2ccc([N+](=O)[O-])o2)cc1OC,,"inconclusive [cytotoxic, single point]"
CC(C)Nc1oc(-c2cccc3ccccc23)nc1C#N,,"inconclusive [cytotoxic, single point]"
COc1cc2ncc(C(=O)c3ccccc3)c(N3CCN(Cc4ccccc4)CC3)c2cc1OC,,"inconclusive [cytotoxic, single point]"
Cc1c(C#N)c(NC(=O)CCl)n(Cc2ccccc2)c1C,,"inconclusive [cytotoxic, full curve, poor fit]"

SMILES,"activity, negative = less viability",Potency
CCN(CC)CCCNC(=O)C1CCN(c2ncnc3c2sc2cccc(F)c23)CC1,,"inconclusive [cytotoxic, single point]"
COc1ccc(Cc2c(-c3ccco3)nc3c(C)cc(Br)cn23)c(C)c1,,"inconclusive [cytotoxic, partial curve]"
CC(C)C1Oc2ccccc2N(CC(=O)N(Cc2ccccn2)CC2CCCO2)C1=O (stereo unspecified),,inactive
CN1CCN(C2=Nc3ccccc3Oc3ccc(Cl)cc32)CC1,,"inconclusive [cytotoxic, partial curve, poor fit]"
O=c1c(-c2ccc(F)cc2)coc2c3c(ccc12)OCCO3,,inactive
Cc1ccc2nc3c(c(C(=O)OCC(=O)N(C)C4CCS(=O)(=O)C4)c2c1)CCCC3 (stereo unspecified),,"inconclusive [cytotoxic, single point]"
Cc1cccc2sc(NC(=O)CN(C)S(=O)(=O)c3ccc(Br)s3)nc12,,"inconclusive [cytotoxic, single point]"
COC(=O)Cc1[nH]n(-c2nc3ccccc3s2)c(=O)c1C(C)=Nc1ccc(OC)cc1,,"inconclusive [cytotoxic, partial curve]"
CCOC(=O)[C@]12CCC=C1N(CCC1=CCCCC1)C(=O)[C@H](CC(=O)NCc1cccc3ccccc13)C2,,inactive
CCOc1cccc(CNc2ccc(O)cc2)c1OCc1ccc(Cl)cc1Cl,,"inconclusive [cytotoxic, single point]"
Cc1ccc(C(=O)NCC(=O)OC(C)C(=O)NC2CCCCC2C)cc1C (stereo unspecified),,inactive
CC(C)(C)c1cc(NC(=O)Nc2ccc(Cl)cc2Cl)no1,,"inconclusive [cytotoxic, single point]"
O=C(Nc1ccc(F)cc1F)c1ccc(COc2c(F)c(F)cc(F)c2F)o1,,"inconclusive [cytotoxic, single point]"
COc1ccccc1NC(=O)C1CC(C(C)C)OC1=O (stereo unspecified),inconclusive: 30.3%,
O=C1c2ccccc2-c2cc(Br)ccc2NC1O (stereo unspecified),,inactive
COC(=O)CS(=O)(=O)c1nnc([C@H](Cc2ccccc2)NC(=O)OC(C)(C)C)o1,,"inconclusive [cytotoxic, single point]"
O=C(NN=Cc1ccccc1)C(Oc1ccccc1)c1ccccc1 (stereo unspecified),,inactive
CCc1ccccc1Oc1nc(NCc2ccccc2)nc2ccsc12,,"inconclusive [cytotoxic, single point]"
Cc1cc2c(cc1S(=O)(=O)NCCc1ccc(Cl)cc1)OCC(=O)N2,,inactive
CCOC(=O)C1=C(O)c2ccccc2C(=O)/C1=C\c1ccc(CC)cc1,,active: 11.2 µM
CC(C)c1cccc(-c2csc(C(C)(O)c3cccc(F)c3)n2)c1 (stereo unspecified),,inactive
CC1=C(C)/C(=N/OC(=O)c2cccc([N+](=O)[O-])c2)C=CC1=O,,"inconclusive [cytotoxic, single point]"
O=C(O)Cc1ccc(N=Cc2c(O)ccc3ccccc23)cc1,,"inconclusive [cytotoxic, single point]"
